Assay results: PubChem BioAssay AID1918998 (Molecular Pharmacology Branch, DTP, NCI, 2023)
Certain results were filed several times, with different values. They are shown here; other results are not. There may be further records. Results that share an entry are repeats in other runs, samples, wells, individuals or studies. Marks such as (2×) stand for listed records that agree. Dates in brackets are months of testing.

Test system: 521955-158-R2-J5-PDC complex spheroid growth
Assay: Anticancer human tumor 521955-158-R2-J5-PDC patient-derived pancreatic carcinoma cell line growth inhibition [AhR]
Details: stronger effect = lower value
From the text: Multicellular complex tumor spheroid response to aryl hydrocarbon receptor antagonists in combination with a variety of drugs and investigational agents in selected tumor cell lines
The current study was undertaken to assess response to aryl hydrocarbon receptor antagonists in combination with standard-of-care drugs and investigational agents in solid tumor complex spheroid models. Complex spheroids include a stromal component modeled by human endothelial cells (HUVEC) and fibroblasts modeled by human mesenchymal stem cells (MSCs). The concentration ranges selected for each drug and investigational agent were based upon clinically achievable concentrations if the clinical Cmax of the agent was known.
Compounds. The drugs and investigational agents: BAY 2416964 (NSC825713), GNF351 (NSC835774), CH-223191 (NSC835775), CPI-455 (NSC825282), aza-TdCyd (NSC777586), decitabine (NSC127716), belinostat (NSC758774), entinostat (NSC756642), pevonedistat (NSC761192), tazemetostat (NSC777109), talazoparib (NSC765396), olaparib (NSC753686), selinexor (NSC780203), nedisertib (M3814, NSC802822), bortezomib (NSC756655), venetoclax (NSC766270), doxorubicin (NSC123127), elimusertib (BAY189344, NSC800525), ceralasertib (AZD6738, NSC777638), TAK-243 (NSC785004), alisertib (NSC759677), etoposide (NSC141540), topotecan (NSC609699), eribulin (NSC707389), gemcitabine (NSC613327), carboplatin (NSC241240), cisplatin (NSC119875), and SN-38 (NSC673596) were obtained from the National Cancer Institute (NCI) Developmental Therapeutics Program Chemical Repository (32). The FDA-approved anticancer drug set is available from the Developmental Therapeutics Program at https://dtp.cancer.gov/organization/dscb/obtaining/available plates.htm. […] The stock solutions were prepared in dimethyl sulfoxide (DMSO, Sigma-Aldrich, St. Louis, MO, cat. D2650), except for the platinum compounds which were prepared in saline (Quality Biological, Gaithersburg, MD, cat. 114-055-101), at 800-fold the tested concentration and stored at -70 degrees C prior to their use. All drugs and investigational agents were tested over a range starting from a high concentration at or near the clinical Cmax and decreasing in half-log increments. If the clinical Cmax for an agent had not been determined, the highest concentration tested was 10 microM (Table 1).
Cell Culture. All cells were maintained in an incubator at 37 degrees C and 5% CO2 with 95% humidity. The PDC lines were cultured according to standard operating procedures established by the NCI PDMR (https://pdmr.cancer.gov). Briefly, all PDCs were thawed and cultured in Matrigel-coated flasks prepared with a working solution of 1X Ham's F-12 nutrient mix, without supplementation (Invitrogen, Waltham, MA, cat. 11765054), 100 U/mL penicillin-streptomycin (Invitrogen, cat. 15140122), and 2.5% Matrigel (Corning Inc., Corning, NY, cat. 354248) for the first three passages. All PDCs were cultured in complete DMEM/F-12 media containing advanced DMEM/F-12 (Invitrogen, cat. 12634028), 4.9% defined fetal bovine serum, heat inactivated (HyClone Laboratories Inc., Logan, UT, cat. SH30070.03HI), 389 ng/mL hydrocortisone (Sigma-Aldrich, cat. H4001), 9.7 ng/mL human EGF recombinant protein (Invitrogen, cat. PHG0313), 23.4 microg/mL adenine (Sigma-Aldrich, cat. A2786), 97.3 U/mL penicillin-streptomycin (Invitrogen, cat. 15140122), 1.9 mM L-glutamine (Invitrogen, cat. 25030081), and 9.7 microM Y-27632 dihydrochloride (Tocris Bioscience, Bristol, United Kingdom, cat. 1254). The PDCs were cultured in complete DMEM/F12 media without 10 microM Y-27632 dihydrochloride for at least two passages prior to the screen. The established cell lines NCI-H1341 and […] were cultured in DMEM/F-12, HEPES (Invitrogen, cat. 11330032), 5% defined fetal bovine serum (HyClone Laboratories Inc., cat. SH30070.03), ITS premix universal culture supplement [insulin (5 microg/mL), transferrin (5 microg/mL), and selenious acid (5 ng/mL)] […]
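Further: spheroids mix tumor cells with HUVEC endothelium and human MSC stroma; luminescence taken as viability surrogate after a week of drug exposure.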

**Q.** Which results are given for `Cc1ccccc1N=Nc1ccc(NC(=O)c2ccnn2C)c(C)c1`?
**A.** viability, T/C (compound alone 0.1 µM): 94.7, 73.2, 96.5, 77.5, 109 (2×), 68.7, 76.8, 80.3, 85, 99.9, 92.3, 94.2, 85.9, 104, 107, 94.3, 78.1, 112%; viability, T/C (compound alone 0.316 µM): 85.8, 85.2, 79.8, 86.3, 85, 88.9, 108, 101 (2×), 94, 99.5, 103, 123, 97.6, 93, 88.3, 97.7, 85.6, 105% (2×); viability, T/C (compound alone 1 µM): 140, 105 (3×), 112 (2×), 92.1, 99.1, 110, 87.2, 103, 95.5, 118 (2×), 99, 93, 143, 115, 98.7, 114%; viability, T/C (compound alone 3.16 µM): 148, 105, 136, 108, 126, 122 (2×), 99.1, 109, 132, 115, 114, 124, 123, 130, 141, 128 (2×), 118, 102%; viability, T/C (compound alone 10 µM): 172, 122, 124, 140 (2×), 132 (2×), 142 (2×), 105, 138, 151, 161, 129, 153, 165, 121, 147, 100, 131, 111%

**Q.** How did the viability, T/C (compound alone 0.1 µM) turn out when `Cc1cncc(-c2nc(NCCc3c[nH]c4ccccc34)c3ncn(C(C)C)c3n2)c1` was run?
**A.** 84.7, 93.4, 93.8, 103, 107 (2×), 81.9, 85.7, 94.7, 91.2, 91.9, 93 (2×), 79.9, 94.2, 96.8, 95.7, 109, 104, 102%

**Q.** And the viability, T/C (compound alone 0.316 µM)?
**A.** 99.2, 93.5, 98.4, 94.1, 112, 106, 98.9, 116 (2×), 107, 124, 101 (2×), 104, 97.1, 98, 97.4, 122, 108, 113%

**Q.** What about the viability, T/C (compound alone 1 µM) of the same compound?
**A.** 110, 121, 118, 106 (3×), 104, 95.5, 113 (2×), 102 (2×), 105 (2×), 112 (2×), 129, 115, 101, 96.5%

**Q.** And the viability, T/C (compound alone 3.16 µM)?
**A.** 106, 131 (2×), 116 (2×), 134, 120, 104, 143 (2×), 109, 119, 123, 137, 133, 113, 126, 159, 95.9, 124%

**Q.** What about the viability, T/C (compound alone 10 µM) of the same compound?
**A.** 89.7, 115, 123, 116 (2×), 118 (2×), 108, 126, 113, 121, 111 (2×), 131, 85, 92.7, 99.2, 140, 147, 112%

**Q.** `CC(CO)NC(=O)c1cc(-c2ccc(Cl)cc2)nn(-c2cnn(C)c2)c1=O` (stereo not given) was tested. Which viability, T/C (compound alone 0.1 µM) did it give?
**A.** 120, 88.5, 102 (2×), 94.2, 92, 101, 80.6, 104, 66.3, 90.4, 107, 91, 105, 83.5, 89.8, 77.7, 109, 97.6, 97.2%

**Q.** What about the viability, T/C (compound alone 0.316 µM) of the same compound?
**A.** 114, 102 (2×), 91.8, 100, 98.3, 96.2, 97.2 (2×), 103, 104, 101 (2×), 94.5, 105, 106, 91.7, 84, 97.3, 113, 81.5%

**Q.** And the viability, T/C (compound alone 1 µM)?
**A.** 104, 101, 86.7, 97, 97.5, 75.8, 82.8, 99.6, 81.7, 90.6, 103, 98.2, 86.2, 111, 116, 90.7, 131, 128, 97.2, 102, 118%

**Q.** And the viability, T/C (compound alone 3.16 µM)?
**A.** 138, 95.8, 97.1, 88.3, 98.2, 99.4, 102, 89.8, 81.2, 110, 100, 85.3, 117, 92.6, 91.7, 114, 96.8, 90.8, 129%

**Q.** `CC(C)CC(NC(=O)C(Cc1ccccc1)NC(=O)c1cnccn1)B(O)O` (stereo not given) was tested. Which viability, T/C (compound alone 0.00949 µM) did it give?
**A.** 5.76% [2022-05] and 95.9%, 69.2% [2022-06]
